Data on 88 molecules can be found in paper PMC4336329 (PLoS ONE, 2015).

Screen size: about 310,000 compounds; about 2,200 (0.71%) showed an effect of 50% or more. The effect is printed as a negative number. Some of the results follow.

The target in the test is human ether-à-go-go-related gene (hERG) potassium channel (human, UniProt Q12809). As to the kind of experiment: primary screen, population patch clamp on CHO cells stably expressing hERG.
human ether-à-go-go-related gene (hERG) potassium channel, sequence (Q12809 whole entry, looked up): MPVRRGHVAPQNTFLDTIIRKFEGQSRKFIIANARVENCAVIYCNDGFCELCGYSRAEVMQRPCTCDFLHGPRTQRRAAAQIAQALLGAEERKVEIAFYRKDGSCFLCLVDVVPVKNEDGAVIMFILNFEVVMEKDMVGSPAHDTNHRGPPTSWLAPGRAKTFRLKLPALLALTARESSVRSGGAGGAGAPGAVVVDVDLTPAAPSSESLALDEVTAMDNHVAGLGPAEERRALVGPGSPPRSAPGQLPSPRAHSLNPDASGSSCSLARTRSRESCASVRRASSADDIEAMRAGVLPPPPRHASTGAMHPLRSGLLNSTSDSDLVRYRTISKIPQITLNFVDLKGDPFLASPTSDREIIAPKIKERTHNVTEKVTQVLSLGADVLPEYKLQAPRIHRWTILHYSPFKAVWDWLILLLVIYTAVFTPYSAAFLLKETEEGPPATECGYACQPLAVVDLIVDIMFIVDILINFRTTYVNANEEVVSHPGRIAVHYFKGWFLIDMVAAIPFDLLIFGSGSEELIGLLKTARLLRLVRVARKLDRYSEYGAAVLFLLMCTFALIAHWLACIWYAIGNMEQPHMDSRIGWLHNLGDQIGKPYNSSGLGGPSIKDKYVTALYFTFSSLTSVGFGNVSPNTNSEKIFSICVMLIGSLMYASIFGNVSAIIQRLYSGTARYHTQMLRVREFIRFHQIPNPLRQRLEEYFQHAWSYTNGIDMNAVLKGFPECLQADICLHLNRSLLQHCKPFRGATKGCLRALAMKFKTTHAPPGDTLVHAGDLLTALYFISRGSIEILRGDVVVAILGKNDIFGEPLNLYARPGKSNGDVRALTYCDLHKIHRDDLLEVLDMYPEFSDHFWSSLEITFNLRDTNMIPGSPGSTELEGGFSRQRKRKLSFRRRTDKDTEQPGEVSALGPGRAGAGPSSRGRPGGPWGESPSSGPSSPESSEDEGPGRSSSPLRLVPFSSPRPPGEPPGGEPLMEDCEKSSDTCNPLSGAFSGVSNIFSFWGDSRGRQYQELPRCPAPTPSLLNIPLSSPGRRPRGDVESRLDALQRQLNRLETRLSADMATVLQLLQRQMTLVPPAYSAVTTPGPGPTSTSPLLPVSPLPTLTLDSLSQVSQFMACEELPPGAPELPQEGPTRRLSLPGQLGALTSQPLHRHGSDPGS
In the case of `COc1c2c(nc3occc13)C(CCC(C)(C)O)(OC)C(O)CC2` (stereo not shown), the “hERG current change (%, negative = inhibition) at 1uM” value amounted to 8.17%.
On to `Cc1nc2ccccc2c(=O)n1-c1ccc(Cl)cc1Cl`, for which the “hERG current change (%, negative = inhibition) at 1uM” value came out at 5.22%.
The figure for `CCNc1nc(-c2cc3ccccc3o2)cs1` is 8.29%.
The figure for `CCOC(=O)c1nnn(-c2nonc2N)c1CS(=O)(=O)c1ccccc1` is 12.1%; for `Cc1ccc(CN2CCN(CC(=O)NCCCN3CCN(c4ccc(F)cc4)CC3)C2=O)cc1` it is -56.6%.
The figure for `COC(=O)c1ccccc1-n1c(CCC(=O)O)ccc1-c1ccccc1` is 5.16%.
On to `Cc1ccc(N(CC(=O)N/N=C/c2cccnc2)S(=O)(=O)c2ccccc2)cc1`, for which the “hERG current change (%, negative = inhibition) at 1uM” value was -9.45%.
Regarding `Cc1cccc(N(Cc2cc3ccccc3[nH]c2=O)C(=O)c2ccco2)c1C`, the “hERG current change (%, negative = inhibition) at 1uM” value is 5.28%.
`Cc1ccc2[nH]c(=O)c(CN(CCCN3CCOCC3)Cc3nnnn3C3CCCC3)cc2c1`: the “hERG current change (%, negative = inhibition) at 1uM” value is on record as -4.76%.
In the case of `CC(=O)NC1=NN(C(C)=O)C(C)(CS(=O)(=O)c2ccc(Cl)cc2)S1` (stereo not shown) it was 12.6%; in that of `O=C(CN(Cc1ccc(Br)cc1)S(=O)(=O)c1ccccc1)NCc1cccnc1`, 12.2%; in that of `Oc1ccccc1CNc1cccc2cccnc12`, 10.5%.
In the case of `C#CCNC(=O)c1cc2sccc2n1C` it was 0.939%.
The figure for `O=C(COc1ccccc1)Nc1nc2c(s1)CCCC2` is 9.72%.
Take `Cl.O=C(NCCCNCc1ccccc1)c1ccncc1`: the “hERG current change (%, negative = inhibition) at 1uM” value is 9.31%.
In the case of `Cc1ccc2c(c1)NC(=O)C(CC(=O)NCCCN1CCCC1)O2` (stereo not shown) it was 12.4%; in that of `CS(=O)(=O)Nc1ccc(OCc2ccccc2)cc1`, 10.1%; in that of `O=C(c1cc2ccccc2oc1=O)N1CCOCC1`, 11.1%.
In the case of `O=C(NCc1cccnc1)C1CC(=O)N(CCc2ccccc2)C1` (stereo not shown) it was 5.44%; in that of `CCOC(=O)c1noc(C)c1C(=O)Nc1cccc(F)c1`, -2.29%; in that of `Cc1cc(/C=N/NC(=O)c2cccc([N+](=O)[O-])c2)c(C)n1-c1ccccc1`, 10.2%.
In the case of `COc1ccc(Cl)cc1NC(=O)CN(C)C(=O)COc1ccccc1F` it was 6.13%.
Turning to `CCOC(=O)c1c(C(F)(F)C(F)(F)C(F)(F)C(F)(F)F)n[nH]c1C`, the “hERG current change (%, negative = inhibition) at 1uM” value was 7.41%.
The figure for `Fc1cccc(Nc2nc3ccccc3n3cnnc23)c1` is 15.4%.
Turning to `CC(=O)N1c2ccc(S(=O)(=O)N3CCCC(C(=O)Nc4cc(C)cc(C)c4)C3)cc2CC1C` (stereo not shown), the “hERG current change (%, negative = inhibition) at 1uM” value is 12.7%.
In the case of `CCOc1ccc(CN2CCN(Cc3[nH]c4ccc(OC)cc4c3C)CC2CCO)cc1` (stereo not shown) it was -76.9%; in that of `CCOC(=O)c1c(NC(=O)COC(=O)c2ccccn2)sc(C(=O)N(C)C)c1C`, 7.64%; in that of `O=C(CN1C(=O)NC2(CCCCCC2)C1=O)NC1CC1`, 15.5%.
In the case of `CCCCOc1ccc(CSc2n[nH]c(C)n2)cc1`, the “hERG current change (%, negative = inhibition) at 1uM” value is on record as 3.61%.
The figure for `COc1ccc(Br)cc1C(=O)Nc1cccc(C)c1C` is 2.14%; for `COc1cc(OC)cc(C(=O)NCC(=O)OCC(=O)c2ccc3c(c2)-c2ccccc2C3)c1` it is 4.3%; for `CC(=O)NC(CCS(C)(=O)=O)C(=O)Nc1ccc(C)c(F)c1` (stereo not shown) it is -14.9%.
In the case of `COc1ccc(OC)c(NC(=O)CN(Cc2ccc(Cl)cc2)S(C)(=O)=O)c1` it was 2.7%.
For `O=C(CNC(=O)c1ccccc1Br)N/N=C/c1ccco1`, the “hERG current change (%, negative = inhibition) at 1uM” value was 14.3%.
In the case of `CCOC(=O)Cn1nc(C)n(-c2ccc(Cl)cc2)c1=O` it was 5.95%; in that of `Cc1c(C(=O)Nc2ccc(N3CCOCC3)cc2)cccc1[N+](=O)[O-]`, 8.25%.
In the case of `N#CC1=C(N)Oc2c(c(=O)oc3ccccc23)C1c1ccncc1` (stereo not shown), the “hERG current change (%, negative = inhibition) at 1uM” value is 1.9%.
The figure for `CC(C)(C)c1ccc(C(=O)NCCC(=O)N2CCCC2)cc1` is 9.14%; for `C#CCOC(=O)C[N+](C)(C)CC=C.[Cl-]` it is 12.1%; for `Cc1cc(C(=O)CN2C(=O)NC3(CCCCC3)C2=O)c(C)n1Cc1ccco1` it is 4.33%.
In the case of `O=C(Nc1nncs1)c1cccc(S(=O)(=O)N2CCCC2)c1` it was 7.66%.
Regarding `COc1cccc(C(C(=O)NC2CCCC2)N(Cc2cccnc2)C(=O)Cc2cccs2)c1` (stereo not shown), the “hERG current change (%, negative = inhibition) at 1uM” value stood at 5.68%.
The figure for `CCOC(=O)c1c(NC(=O)COC(=O)c2cnc(C)cn2)sc(C(=O)N(C)C)c1C` is 14%.
In the case of `Cc1nnc(NC(=O)c2nn(CC(C)C)c(=O)c3ccccc23)s1` it was 22.4%; in that of `C=CCn1c(SC(C)C(=O)NC2(C#N)CCCCC2)nnc1-c1ccc(OC)cc1` (stereo not shown), 7.7%.
In the case of `Brc1ccc(Nc2ncnc3[nH]ncc23)cc1` it was -3.27%.
With `CC(=O)Nc1ccc(NC(=O)CSc2ncnn2-c2ccccc2)cc1`, the “hERG current change (%, negative = inhibition) at 1uM” value amounted to 6.61%.
As for `O=C(C1CCCN(Cc2cccs2)C1)N1CCCCCC1.O=C(O)C(=O)O` (stereo not shown), the “hERG current change (%, negative = inhibition) at 1uM” value came to 7.61%.
The figure for `CCOC(=O)c1[nH]c2ccc(OC)cc2c1NC(=O)c1ccc2c(c1)OCO2` is 15%; for `CCOC(=O)c1cnc2ccc(F)cc2c1Nc1ccc2c(c1)OCCO2` it is 9.45%.
The figure for `O=C(N/N=C/c1cccs1)[C@H]1C[C@@H]1c1ccccc1` is 3.86%; for `O=C(c1ccccc1)N(C(=O)c1ccccc1)c1ncnc2c1C(c1ccccc1)c1c(ccc3ccccc13)O2` (stereo not shown) it is 10.3%; for `Cc1nc(-c2ccccc2)c(-c2ccccc2)[nH]1` it is -7.98%.
In the case of `COc1ccc2oc(=O)c(C(=O)N3CCN(c4ccccc4F)CC3)cc2c1` it was -3.24%; in that of `CC(C)CCOC(=O)C1[C@H]2C(=O)N(Cc3cccs3)C[C@]23C=C[C@H]1O3` (stereo partly shown), 11.2%.
On to `O=C(CN(C(=O)c1csnn1)c1cccc2c1CCCC2)NCc1ccc(F)cc1`, for which the “hERG current change (%, negative = inhibition) at 1uM” value is recorded as -11.1%.
The figure for `CCC/C=C1/CCCOC(C(=O)NCc2ccccn2)(C(F)(F)F)C1` (stereo not shown) is 7.3%.
In the case of `O=C(O)/C=C\C(=O)Nc1ccccc1C(=O)NCc1ccccc1` it was 15.6%.
The figure for `Cc1ccc(S(=O)(=O)N2CCN(C(=O)c3ccco3)CC2)cc1C` is 3.3%.
As for `CCOC(=O)c1ccc2nc(NC(=O)C(C)C)sc2c1`, the “hERG current change (%, negative = inhibition) at 1uM” value worked out at 6.43%.
As to `Cc1cccc(C(=O)N/C(=C\c2ccco2)C(=O)N2CCCC2)c1`, the “hERG current change (%, negative = inhibition) at 1uM” value was 3.98%.
The figure for `Cc1csc(C(C)N(C)C(=O)c2ccc(OC3CCN(Cc4ccccn4)CC3)cc2)n1` (stereo not shown) is 9.1%; for `COc1ccc(NS(=O)(=O)c2cc3c(cc2C)N(C(C)=O)CCO3)c(OC)c1` it is 12%.
In the case of `Cc1ccc(C(=O)OCC(=O)N(C)c2c(N)n(Cc3ccccc3)c(=O)[nH]c2=O)s1`, the “hERG current change (%, negative = inhibition) at 1uM” value came to 8.46%.
The figure for `CC1(C)CC(=O)C2=C(C1)Oc1ncn(CCCn3ccnc3)c(=N)c1C2c1ccccc1` (stereo not shown) is -3.28%; for `C/C(CC(=O)Nc1cc(C)cc(C)c1)=N\NC(=O)c1ccccn1` it is 9.88%.
The figure for `O=C(c1nc2ccccn2c1CN1CCC(Cc2ccccc2)CC1)N1CCCC1` is -54.2%; for `CCN(c1cccc(C)c1)S(=O)(=O)c1ccc2c(c1)CCCN2C(C)=O` it is 3.37%; for `CCOC(=O)N1CCN(C(c2cccc(OC)c2)c2sc3nc(C)nn3c2O)CC1` (stereo not shown) it is 7.87%.
For the molecule `O=C(CSCSCC(=O)NCC1CCCO1)NCC1CCCO1` (stereo not shown), the “hERG current change (%, negative = inhibition) at 1uM” value amounted to 8.17%.
In the case of `COc1cc(NC(=O)c2[nH]c(C)c(C(C)=O)c2C)cc(OC)c1OC` it was 7.52%; in that of `CC1(c2nnc(Cc3ccccc3)o2)CC(c2ccccc2)=NO1` (stereo not shown), -1.1%.
For `COc1ccccc1CC(NC(C)=O)C(=O)NC1CCN(C(=O)c2ccc(C)cc2)CC1` (stereo not shown), the “hERG current change (%, negative = inhibition) at 1uM” value is reported as 12.4%.
In the case of `CNC(=O)c1cc(C(=O)c2ccccc2C(F)(F)F)c[nH]1` it was 10%; in that of `COCCNC(=O)Cn1ccc2cc(S(=O)(=O)N3CCCCC3)ccc21`, 11.8%; in that of `COc1ccc(-c2cc(C(F)(F)F)nc(S(C)(=O)=O)n2)cc1OC`, 15.8%.
In the case of `O=C(NCc1ccco1)C(=O)NCc1ccccc1Cl` it was 9.73%; in that of `CC(=O)N1N=C(N)SC12CCCC2`, 15.7%; in that of `CC1CN(Cc2cc(=O)n3ccsc3n2)CC(C)O1` (stereo not shown), 6.79%.
The figure for `Cn1c(=O)n(C)c2cc(NC(=O)COc3ccccc3)ccc21` is 18.2%; for `COc1ccc(-c2cc(C(=O)N(C)Cc3ccccc3F)c3ccccc3n2)cc1OC` it is 3.88%; for `CCC(CC)C(=O)Nc1cc(C(=O)OC)cc(C(=O)OC)c1` it is 1.94%.
In the case of `CCCCCCc1nc(C(N)=O)c2[nH]c(=O)n(-c3ccc(OC)cc3OC)c2n1`, the “hERG current change (%, negative = inhibition) at 1uM” value is reported as 12%.
The figure for `O=C(CCC(=O)Nc1cc(C(F)(F)F)ccc1Cl)N/N=C\c1cc([N+](=O)[O-])ccc1O` is 9.8%; for `CN(CC(=O)Nc1ccccc1Br)C(=O)COc1cccc2c1OC(C)(C)C2` it is 10.9%.
The figure for `Nc1c(C(=O)OCC(=O)Nc2ccc(OC(F)F)cc2)[nH]c(=O)[nH]c1=O` is -0.461%; for `CC1CN(C(=O)COc2coc(CN3CCc4ccccc4C3)cc2=O)CC(C)O1` (stereo not shown) it is 10.5%; for `COc1ccccc1N1CCN(S(=O)(=O)CCNC(=O)c2cc(OC)c(OC)c(OC)c2)CC1` it is 9.08%.
